In the antibiotic and cytotoxicity screens of Wong et al. (2023):
Some of the results follow.

How the values were obtained:
HSkMC = human skeletal muscle cells; test: cytotoxicity call (relative viability < 0.9); details: 10 µM
HepG2 = test: cytotoxicity call (relative viability < 0.9); details: 10 µM
S. aureus RN4220 = test: growth inhibition call (relative growth <= 0.2); details: 50 µM

Row | Structure (SMILES) | cytotoxicity call (HSkMC) | cytotoxicity call (HepG2) | growth inhibition call (S. aureus RN4220)
1 | CCCCc1c(C)nc2ccc(Br)cc2c1SC(N)N | inactive | inactive | inactive
2 | COc1ccc(NC(=O)N(C)C[C@@H]2Oc3ccc(NS(C)(=O)=O)cc3C(=O)N([C@@H](C)CO)C[C@@H]2C)cc1 | inactive | inactive | inactive
3 | CCCN(C)C[C@H]1OCCCC[C@@H](C)Oc2ccc(NC(=O)Nc3ccc(C(F)(F)F)cc3)cc2C(=O)N([C@@H](C)CO)C[C@H]1C | inactive | active | inactive
4 | CO[C@@H]1CN(C)C(=O)c2cc(NS(=O)(=O)CC(F)(F)F)ccc2OC[C@@H](C)N(Cc2nccs2)C[C@H]1C | inactive | inactive | inactive
5 | C[C@@H]1CN([C@@H](C)CO)C(=O)c2cc(NS(=O)(=O)c3ccccc3)ccc2O[C@H]1CN(C)S(=O)(=O)c1cccs1 | inactive | inactive | inactive
6 | C[C@@H]1CN([C@@H](C)CO)C(=O)c2cc(NS(C)(=O)=O)ccc2O[C@@H](C)CCCCO[C@H]1CN(C)S(=O)(=O)c1ccc(F)cc1 | inactive | inactive | inactive
7 | CN(C)CCCN1c2ccccc2Sc2ccccc21.Cl | inactive | active | inactive
8 | COc1ccc(NC(=O)N(C)C[C@@H]2Oc3ccc(NC(=O)CCN4CCOCC4)cc3CC(=O)N([C@@H](C)CO)C[C@@H]2C)cc1 | inactive | inactive | inactive
9 | CC(C)NC(=O)Nc1ccc2c(c1)C(=O)N([C@@H](C)CO)C[C@@H](C)[C@@H](CN(C)Cc1ccc3c(c1)OCO3)O2 | inactive | inactive | inactive
10 | Cc1noc(C)c1NC(=O)Nc1ccc2c(c1)C(=O)N([C@H](C)CO)C[C@@H](C)[C@@H](CN(C)S(C)(=O)=O)O2 | inactive | inactive | inactive
11 | COc1ccc(S(=O)(=O)N(C)C[C@H]2OCCCC[C@@H](C)Oc3ccc(NC(=O)CCC(F)(F)F)cc3C(=O)N([C@@H](C)CO)C[C@@H]2C)cc1 | inactive | inactive | inactive
12 | O=C(C[C@H]1C[C@H]2c3cc(NC(=O)NC4CCCC4)ccc3O[C@H]2[C@@H](CO)O1)NCCN1CCCCC1 | inactive | inactive | inactive
13 | COc1ccc(S(=O)(=O)N(C)C[C@H]2Oc3c(NS(C)(=O)=O)cccc3C(=O)N([C@@H](C)CO)C[C@H]2C)cc1 | inactive | inactive | inactive
14 | C[C@H](CO)N1C[C@H](C)[C@H](CN(C)S(=O)(=O)c2ccc(F)cc2)Oc2c(NC(=O)Nc3ccc(C(F)(F)F)cc3)cccc2C1=O | inactive | inactive | inactive
15 | C[C@@H]1CN([C@H](C)CO)C(=O)Cc2cc(NS(=O)(=O)c3ccccc3)ccc2O[C@H]1CN(C)Cc1ccc2c(c1)OCO2 | inactive | inactive | inactive
16 | COCc1n[nH]c(C)c1C(=O)O | inactive | inactive | inactive
17 | C[C@@H]1CCCCO[C@H](CN(C)CC2CCCCC2)[C@@H](C)CN([C@H](C)CO)C(=O)c2cc(NC(=O)Nc3ccc(C(F)(F)F)cc3)ccc2O1 | active | active | inactive
18 | C[C@H](CO)N1C[C@H](C)[C@H](CN(C)S(=O)(=O)c2ccccc2)OCCCC[C@H](C)Oc2ccc(NC(=O)C3CCCCC3)cc2C1=O | inactive | inactive | inactive
19 | CCCCCCc1nc(-c2cc(C)c(OC)c(C)c2)cc2c1[Si](C(C)C)(C(C)C)O[C@H]2c1ccccc1 | inactive | inactive | inactive

Row | Structure (SMILES) | cytotoxicity call (HSkMC) | cytotoxicity call (HepG2) | growth inhibition call (S. aureus RN4220)
20 | O=C(Nc1ccc(Cl)cc1)c1sc2ccccc2c1Cl | inactive | inactive | inactive
21 | C[C@H](CO)N1C[C@H](C)[C@H](CN(C)S(=O)(=O)c2ccc(C#N)cc2)Oc2ncc(C#Cc3ccc(F)cc3)cc2C1=O | inactive | inactive | inactive
22 | C[C@@H]1CN([C@@H](C)CO)C(=O)c2cc(NC(=O)Nc3ccc(F)cc3)ccc2O[C@@H](C)CCCCO[C@@H]1CN(C)C(=O)NC1CCCCC1 | inactive | inactive | inactive
23 | C[C@H](CO)N1C[C@H](C)[C@@H](CN(C)C(=O)NC2CCCC2)Oc2cc(Br)ccc2S1(=O)=O | inactive | inactive | inactive
24 | COc1ccc(NC(=O)Nc2ccc3c(c2)C(=O)N([C@@H](C)CO)C[C@@H](C)[C@H](CN(C)C(=O)Nc2ccc(OC)cc2)OCCCC[C@@H](C)O3)cc1 | inactive | inactive | inactive
25 | CCS(=O)(=O)Nc1ccc2c(c1)C(=O)N(C)C[C@@H](OC)[C@@H](C)CN(C(=O)c1ccc3c(c1)OCO3)[C@@H](C)CO2 | inactive | inactive | inactive
26 | COc1ccc(NC(=O)N(C)C[C@H]2OCCCC[C@@H](C)Oc3ccc(NC(=O)c4ccncc4)cc3C(=O)N([C@@H](C)CO)C[C@@H]2C)cc1 | inactive | inactive | inactive
27 | COc1ccc(S(=O)(=O)Nc2cccc3c2O[C@H](CN(C)CC2CC2)[C@H](C)CN([C@H](C)CO)C3=O)cc1 | inactive | inactive | inactive
28 | C[C@H](CO)N1C[C@H](C)[C@H](CN(C)Cc2ccc(-c3ccccc3)cc2)Oc2ccc(NC(=O)Cc3ccccc3)cc2C1=O | inactive | active | inactive
29 | Cc1noc(C)c1NC(=O)N(C)C[C@H]1Oc2ccc(NC(=O)CCN3CCOCC3)cc2CC(=O)N([C@@H](C)CO)C[C@@H]1C | inactive | inactive | inactive
30 | C[C@@H]1CN([C@H](C)CO)C(=O)c2cc(NC(=O)C3CCCCC3)ccc2O[C@@H](C)CCCCO[C@H]1CN(C)C(=O)Nc1ccc(C(F)(F)F)cc1 | inactive | inactive | inactive
31 | C[C@H]1CCCCO[C@@H](CN(C)Cc2ccccc2)[C@@H](C)CN([C@@H](C)CO)C(=O)c2cc(NC(=O)Cc3ccccc3)ccc2O1 | inactive | inactive | inactive
32 | NCc1csc2c1CCCC2 | inactive | inactive | inactive
33 | C[C@@H]1CN([C@H](C)CO)C(=O)c2cc(NC(=O)c3ccncc3)ccc2O[C@@H]1CN(C)S(=O)(=O)c1ccc(F)cc1 | inactive | inactive | inactive
34 | CC(C)NC(=O)N(C)C[C@H]1Oc2ccc(NC(=O)CCC(F)(F)F)cc2C(=O)N([C@@H](C)CO)C[C@@H]1C | inactive | inactive | inactive
35 | COc1cccc(C(=O)Nc2ccc3c(c2)C(=O)N(C)[C@H]2CC[C@@H](CC(=O)NCC(F)(F)F)O[C@H]2CO3)c1 | inactive | inactive | inactive
36 | Cc1ccc(S(=O)(=O)Oc2ccc(/N=N/c3ccc(-c4ccc(/N=N/c5c(O)ccc6cc(S(=O)(=O)O)cc(S(=O)(=O)O)c56)c(C)c4)cc3C)cc2)cc1 | inactive | inactive | inactive
37 | COc1ccc(S(=O)(=O)N(C)C[C@H]2Oc3ccc(NC(=O)Cn4cnnn4)cc3CC(=O)N([C@H](C)CO)C[C@@H]2C)cc1 | inactive | inactive | inactive
38 | C[C@@H]1CCCCO[C@H](CN(C)C(=O)Nc2ccc3c(c2)OCO3)[C@H](C)CN([C@@H](C)CO)C(=O)c2cc(NS(=O)(=O)c3cccs3)ccc2O1 | inactive | inactive | inactive

Row | Structure (SMILES) | cytotoxicity call (HSkMC) | cytotoxicity call (HepG2) | growth inhibition call (S. aureus RN4220)
39 | O=C(Oc1ccc(C2CCCCC2)cc1)c1cccs1 | inactive | inactive | inactive
40 | Cc1onc(-c2ccccc2Cl)c1C(=O)NC1C(=O)N2C1SC(C)(C)C2C(=O)[O-].[Na+] (stereo not drawn) | inactive | inactive | active
41 | CCC(NC(C)C)C(O)c1ccc(O)c(O)c1.CS(=O)(=O)O (stereo not drawn) | inactive | inactive | inactive
42 | C[C@@H]1CCCCO[C@H](CN(C)C(=O)CCC(F)(F)F)[C@@H](C)CN([C@@H](C)CO)C(=O)c2cc(NC(=O)c3ccccc3)ccc2O1 | inactive | inactive | inactive
43 | CN1CCN(C(=O)C[C@@H]2CC[C@H]3[C@@H](COc4ccc(NC(=O)c5cccs5)cc4C(=O)N3C)O2)CC1 | inactive | inactive | inactive
44 | Cc1ccc(Oc2ccc(CN)cc2)cc1 | inactive | active | inactive
45 | C[C@@H]1CCCCO[C@H](CN(C)CC2CC2)[C@@H](C)CN([C@@H](C)CO)C(=O)c2cc(NS(=O)(=O)c3ccc(Cl)cc3)ccc2O1 | inactive | inactive | inactive
46 | C[C@H](CO)N1C[C@H](C)[C@@H](CN(C)C)Oc2cc(C#C[C@@H](C)O)ccc2S1(=O)=O | inactive | inactive | inactive
47 | Cc1cc(C)n(C(N)=S)n1 | inactive | inactive | inactive
48 | C[C@H]1CN([C@@H](C)CO)C(=O)Cc2cc(NC(=O)Nc3ccc(F)cc3)ccc2O[C@@H]1CN(C)Cc1ccc(Oc2ccccc2)cc1 | inactive | active | inactive
49 | O=C(CN1CCOCC1)NCC[C@H]1CC[C@@H](NS(=O)(=O)c2ccc(F)cc2)[C@@H](CO)O1 | inactive | inactive | inactive
50 | C[C@H]1CCCCO[C@H](CN(C)Cc2ccc(C(=O)O)cc2)[C@@H](C)CN([C@@H](C)CO)C(=O)c2cc(NS(=O)(=O)c3ccc(F)cc3)ccc2O1 | inactive | inactive | inactive
51 | Cc1noc(C)c1NC(=O)Nc1ccc2c(c1)C(=O)N([C@@H](C)CO)C[C@@H](C)[C@@H](CN(C)Cc1ccc(C(F)(F)F)cc1)O2 | inactive | inactive | inactive
52 | c1cn2c(n1)NCC2 | inactive | inactive | inactive
53 | C[C@@H]1CCCCO[C@@H](CN(C)C(=O)Nc2ccc(F)cc2)[C@@H](C)CN([C@H](C)CO)C(=O)c2cc(NS(=O)(=O)c3cccs3)ccc2O1 | inactive | inactive | inactive
54 | COc1ccc(S(=O)(=O)N(C)C[C@H]2OCCCC[C@H](C)Oc3ccc(NC(=O)Nc4ccc(C(F)(F)F)cc4)cc3C(=O)N([C@H](C)CO)C[C@H]2C)cc1 | inactive | inactive | inactive
55 | CC(=O)c1ccc(F)c(Cl)c1 | inactive | inactive | inactive
56 | C[C@H](CO)N1C[C@H](C)[C@@H](CN(C)C(=O)c2ccncc2)OCCCC[C@H](C)Oc2ccc(NC(=O)NC3CCCCC3)cc2C1=O | inactive | inactive | inactive
